Laboratory results: PubChem BioAssay AID1347073 (National Center for Advancing Translational Sciences (NCATS), 2019)
Among all 45,000 compounds or so, about 200 (0.44%) were called active. Inconclusive results (about 7%) are left out. Calls come from the whole dose curve; as a rule, active = well fitted activation curve with a large enough effect; inconclusive = small, poorly fitted or top-dose-only effect; inactive = no such curve, though single readings can be large or run the other way. This is one part of the list.

assay: qHTS of TDP-43 Inhibitors: NCGC Sytravon Library Screen; conditions: yeast TDP-43 toxicity rescue, BacTiter-Glo growth, 24 h; series mostly up to 46.1 µM; growth rescue (activation): at the top concentration; note: 0% is about no effect; nearly all actives have a fitted effect of over 55% in size
How it was run: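 TDP-43-expressing yeast, pregrown in raffinose, seeded at OD600 0.02 in galactose medium with compound for 24 hr at 30 deg C. Growth read by BacTiter-Glo luminescence, so rescue of toxicity appears as activation.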

| SMILES | growth rescue (activation) |
| --- | --- |
| COc1ccc(/C=C/C(=O)c2c(O)c(OC)c3occc3c2OC)cc1 | inactive: 6.63% |
| NC(=O)c1sc(=S)n2c1[nH]c(=O)c1sccc12 | inactive: 16.7% |
| COc1cc(C(=O)Nc2sc3c(c2C#N)CCCC3)c(Br)c(OC)c1OC | inactive: 1.29% |
| Cc1oc(-c2cc(F)ccc2F)nc1CN1CCN(C)C(=O)[C@@H]1C | inactive: -0.902% |
| CC(C)CC(O)(c1ccccc1)C(CN1CCOCC1)c1ccccc1 (configuration not stated) | inactive: 9.75% |
| O=C(CSc1ncc(-c2ccccc2)[nH]1)Nc1ccccc1F | inactive: 4.99% |
| COc1ccc(C(=O)Nc2nncs2)cc1S(=O)(=O)N1CCOCC1 | inactive: 2.75% |
| CCOC(=O)C1(Cc2cccc(Cl)c2)CCCN(C(=O)c2cn[nH]c2)C1 (configuration not stated) | inactive: -10.4% |
| COc1ccccc1CNC(=O)CN1C(=O)c2ccc([N+](=O)[O-])cc2C1=O | inactive: 19.5% |
| Cc1ccc(Cn2ccn(Cc3ccc(C)cc3)c(=O)c2=O)cc1 | inactive: 6.49% |
| O=C(Nc1ccc(S(=O)(=O)NC2=NCCCCC2)cc1)c1cccc(S(=O)(=O)N2CCOCC2)c1 | inactive: 3.72% |
| CCOc1ccc(C(C)=O)cc1COc1ccc(C)nc1[N+](=O)[O-] | inactive: 20.3% |
| O=C1OCC(c2ccccc2)=C1c1ccccc1[N+](=O)[O-] | inactive: 19.7% |
| COc1ccc(Cc2nnc(SCC(=O)Nc3ccc(N4CCOCC4)cc3)n2C)cc1 | inactive: -8.72% |
| C=CCn1c(SCc2ccc(Br)cc2F)nc2cc(C(=O)O)ccc2c1=O | inactive: 12.9% |
| COc1ccc(-c2cc(NC=O)c3ncc(-c4cccc(C(=O)N(C)C)c4)n3c2)c(OC)c1 | inactive: 3.29% |
| O=C(NCCCN1CCOCC1)c1cc(Cl)ccc1OCc1ccccc1 | inactive: -0.187% |
| CN1CCN(NC(=O)c2cc(Br)ccc2Cl)CC1 | inactive: -15% |
| Cc1cc(C)n(CC(=O)NNC(=O)c2cncc(Br)c2)n1 | inactive: 15.8% |
| COc1ccc(CNC(=O)CN(c2ccc(C(C)=O)cc2)S(=O)(=O)c2ccc(C)cc2)cc1OC | inactive: 10.1% |
| O=C(Nc1nnc(SCC(=O)N2CCOCC2)s1)C1CC(=O)N(c2ccccc2)C1 (configuration not stated) | inactive: -3.76% |
| CC(C)(C)NS(=O)(=O)c1cc(C(=O)O)ccc1Cl | inactive: 0.528% |

| SMILES | growth rescue (activation) |
| --- | --- |
| COc1ccc(/C=N/NC(=O)c2ccc(COc3cccc4cccnc34)cc2)cc1OC | inactive: 1.68% |
| COc1cccc(N2C(=O)c3cccnc3C2O)c1 (configuration not stated) | inactive: -13.4% |
| Cc1ccc(C(=O)NC2CCCCCCC2)cc1S(=O)(=O)N1CCOCC1 | inactive: 24.4% |
| CN(C)S(=O)(=O)c1cccc(NC(=O)c2cc3c(cc2Cl)N2CCCCCC2=NS3(=O)=O)c1 | inactive: 16.4% |
| Cc1ccc(NC(=O)C2CCN(S(=O)(=O)c3cccs3)CC2)cc1C | inactive: -0.0814% |
| COc1cccc(NC(=O)CSc2nnc(NC(=O)C3CC3)s2)c1 | inactive: 13.1% |
| CN1CCN(C(=S)Nc2ccc(Oc3ccccc3)cc2)CC1 | inactive: 5.43% |
| COc1ccc(C(=O)Nc2ccc(NC(=O)c3cccs3)cn2)cc1 | inactive: 14.3% |
| COc1ccc(N(CC(=O)NC2CC3CCC2C3)S(=O)(=O)c2ccccc2)cc1OC (configuration not stated) | inactive: -22.6% |
| Cc1ccc(CN(C)C(=O)CCc2c[nH]c3ccccc23)o1 | inactive: 16.9% |
| O=c1[nH]c(C2CCN(S(=O)(=O)c3ccc(S(=O)(=O)NC4CC4)cc3)CC2)nc2c1nnn2Cc1ccc(F)cc1 | inactive: 5.13% |
| O=S(=O)([O-])C/C(=C\c1ccc(Cl)cc1)c1cc[n+](CCO)cc1 | inactive: 5.68% |
| CC(C)=CCn1c2ccc(NC(=O)Nc3ccc(N(C)C)cc3)cc2c(=O)n1C | inactive: 2.75% |
| CC(C)(C)n1ncc2c(=O)n(CC(=O)OCc3ccccc3)cnc21 | inactive: -24.6% |
| CCN(CC)c1ncnc2c1ncn2[C@H]1CN(Cc2ccc(F)cc2)C[C@@H](CO)O1 | inactive: 4.82% |
| CCC(C)C(=O)Nc1nnc(SCC(=O)NC2CCCC2)s1 (configuration not stated) | inactive: -10% |
| COc1ccc(-c2cc(-c3nnc(COC(=O)c4ccc(O)cc4)o3)c3ccccc3n2)cc1OC | inactive: 16.9% |
| Cn1nc(OCCOc2ccccc2)ccc1=O | inactive: 6.14% |
| Cc1ccc(CCNC(=O)C2CCC(=O)N2CCc2ccccc2)cc1 (configuration not stated) | inactive: -2.91% |
| CCC(C)c1ccccc1NC(=O)CN(CC)CC(=O)Nc1ccc2c(c1)OCCO2 (configuration not stated) | inactive: 15.6% |
| CC(C)CC(=O)Nc1ccc(N2CCN(C(=O)c3cccs3)CC2)cc1 | inactive: 3.29% |
| CC(C)CN1CCC(CN(C)Cc2nc(-c3cnccn3)no2)CC1 | inactive: -4.29% |

| SMILES | growth rescue (activation) |
| --- | --- |
| COc1cc(=O)[nH]c(SC(C)C(=O)Nc2cccc3ccccc23)n1 (configuration not stated) | inactive: 10.3% |
| CCOC(=O)N1CCN(C(=O)NC23CC4CC(CC(C4)C2)C3)CC1 | inactive: -7.19% |
| CCCC(C)(C)C(=O)N1CCC1(C)C(=O)NS(=O)(=O)c1cccc(Cl)c1 (configuration not stated) | inactive: -8.76% |
| CCN(CC)S(=O)(=O)c1ccc(O)c(C(=O)OCC(=O)Nc2ccc(OC(F)(F)F)cc2)c1 | inactive: -11% |
| CCOC(=O)c1cnn(-c2ccccc2)c1NC(=O)CCl | inactive: -3.59% |
| O=C(NC1CCCC1)C(c1cccnc1)N(C(=O)c1csnn1)c1ccccc1 (configuration not stated) | inactive: 9.26% |
| Cc1nnc(SCC(=O)NC(C)(C)C)n1NCc1ccc(N(C)C)cc1 | inactive: 7.22% |
| O=C(Nc1ccc([N+](=O)[O-])cc1Br)c1cc2ccccc2nc1Cl | inactive: 0.353% |
| O=C(CCl)Nc1ccc(-c2ccccc2)cc1 | inactive: 25% |
| COC(=O)C1=C(C)NC(=O)CC1c1ccccc1OC (configuration not stated) | inactive: 8.03% |
| CCCc1nnc(SCC(=O)Nc2cc(C)on2)n1CCOC | inactive: -5.27% |
| CS(=O)(=O)N(CC(=O)N1CCc2ccccc2C1)c1cccc(F)c1 | inactive: 2.4% |
| CCCn1nnc(NC(=O)c2ccc([N+](=O)[O-])cc2Cl)n1 | inactive: 17.6% |
| Nc1ncnc2nc(SCCOc3ccc(Cl)cc3)[nH]c12 | inactive: 19.4% |
| OC[C@@H]1CN(CCN2CCOCC2)C[C@H](n2cnc3c(NC4CCCC4)ncnc32)O1 | inactive: 9.69% |
| COc1cc(NC(=O)CN2CCN(c3ccccn3)CC2)cc(OC)c1OC | inactive: -14.6% |
| OCCOCCN1CCN(C(=S)Nc2ccccc2)CC1 | inactive: -1.63% |
| COc1ccc(Cc2noc(CN3CCCN(Cc4ccc(F)cc4)CC3)n2)cc1OC | inactive: 0.257% |
| CC(=O)C1=C(O)C(=O)N(c2cccnc2)C1c1cccc([N+](=O)[O-])c1 (configuration not stated) | inactive: -11.6% |
| CCc1ccccc1Nc1nc(N)nc(CSc2nnc3ccccn23)n1 | inactive: 9.62% |
| CCOC(=O)C(=O)Nc1cc([N+](=O)[O-])ccc1C | inactive: -20.4% |
| Cc1nnc(-c2cnn(C)c2N)n1CCCN1CCOCC1 | inactive: 6.38% |

| SMILES | growth rescue (activation) |
| --- | --- |
| CC(C)N(C)c1ncnc2c1ncn2[C@H]1CN(Cc2cccnc2)C[C@@H](CO)O1 | inactive: 7.52% |
| Clc1ccc(-c2ccc(CNCC3CCCO3)o2)cc1 (configuration not stated) | inactive: 5.88% |
| Cc1ccccc1C(=O)NC(C)C1CC2CCC1C2 (configuration not stated) | inactive: 14.1% |
| C/C(=N\NS(=O)(=O)c1ccccc1)c1cc(Cl)cc(Cl)c1O | inactive: -80.4% |
| CCN(Cc1nc(-c2ccccc2)no1)C(=O)COc1cccc(OC)c1 | inactive: 0.483% |
| Cc1ccc(S(=O)(=O)NC2=NCN(CC(=O)O)CN2)cc1 | inactive: 9.62% |
| O=S(=O)(Nc1ccccc1)c1ccc(NS(=O)(=O)c2cccs2)cc1 | inactive: 18.1% |
| COc1ccc(CC(=O)NCC2(c3ccc(OC)c(OC)c3)CCOCC2)cc1 | inactive: 24.1% |
| COc1ccc(/C=N/NC(=O)CN2CCCc3ccccc32)c(OC)c1 | inactive: 28.5% |
| Cc1ccc(NC(=O)NCc2nc3ccccc3n2C)cc1 | inactive: -19.9% |
| CC(=O)Nc1ccc(NC(=O)CCc2c(C)nc3c(c(C)nn3-c3ccc(C)cc3)c2C)cc1 | inactive: 5.1% |
| CCOc1ccccc1NC(=O)NCc1cccnc1 | inactive: -10.4% |
| Cc1ccccc1OCC(=O)NN1C(=O)C2C3C=CC(O3)C2C1=O (configuration not stated) | inactive: -12.8% |
| Cc1cc(Nc2cccc([N+](=O)[O-])c2)c2cccc(C)c2n1 | inactive: 9.66% |
| C(#Cc1ccc(C#CCN2CCCC2)cc1)CN1CCCC1 | inactive: 21.7% |
| CCOc1cc(/C=N/n2nnnc2N)ccc1OCc1c(C)no[n+]1[O-] | inactive: 9.23% |
| Cc1ccc(S(=O)(=O)N(CC(=O)N2CCOCC2)c2ccc(Br)cc2)cc1 | inactive: 5.01% |
| CCOC(=O)c1c(NC(=S)Nc2ccc(OC)cc2)sc2c1CCC2 | inactive: 12.5% |
| CCOC(=O)N1CCN(C(=O)c2cc3c(=O)n4cccc(C)c4nc3s2)CC1 | inactive: 13.3% |
| O=C(Nc1cnn(Cc2ccc(F)cc2)c1)c1cc(-c2ccco2)on1 | inactive: 12.8% |
| COc1ccc(S(=O)(=O)N2CCCCC2)cc1N(C)S(=O)(=O)c1ccccc1 | inactive: -8.14% |
| NC(=O)CCN1CCN(Cc2cn[nH]c2-c2cccc3ccccc23)CC1 | inactive: 5.97% |

| SMILES | growth rescue (activation) |
| --- | --- |
| CCN(Cc1ccccc1)C(=O)CS(=O)(=O)c1ccccc1 | inactive: -6.12% |
| OCC1(CCOc2ccccc2)CCN(CC2=Cc3cc(Cl)ccc3OC2)CC1 | inactive: 10.1% |
| O=C(COC(=O)C1CC2C=CC1C2)Nc1ccccc1 (configuration not stated) | inactive: 10.4% |
| COc1ccc(Nc2nc(N)c(C(=O)c3ccc(OC)cc3)s2)cc1 | inactive: -6.82% |
| CC1(C(=O)Nc2ccc3c(c2)OCO3)Cc2c(-c3ccc4c(c3)OCO4)ccnc2O1 (configuration not stated) | inactive: 13.1% |
| COc1ccc(F)cc1C(=O)C1CCCN(Cc2cccn2-c2ccccn2)C1 (configuration not stated) | inactive: -4.01% |
| COc1ccccc1OCCNC(=O)C1CCCCC1 | inactive: -4.74% |
| O=C(CSc1nnc(SCc2ccc(Cl)cc2)s1)N/N=C/c1ccccc1Cl | inactive: 6.73% |
| CCCCCCC1/C(=N/O)CCC1C(=O)OC (configuration not stated) | inactive: 8.43% |
| C/C(N)=C(/C#N)C(=O)CSc1nnc(Nc2ccccc2)s1 | inactive: 3.45% |
| Cc1cc(C(=O)Cn2cnc3ccc(Cl)cc3c2=O)c(C)n1C1CC1 | inactive: -32.4% |
| COc1ccccc1CN(CC(=O)NCc1ccc(F)cc1)C(=O)c1csnn1 | inactive: 13.1% |
| O=C(CSc1nc(O)cc(=O)[nH]1)N1c2ccccc2Sc2ccccc21 | inactive: 19.1% |
| O=C(Nc1ccc(N2CCOCC2)cc1)c1csc([C@H]2C[C@H](O)[C@@H](CO)O2)n1 | inactive: -5.08% |
| COCCCn1c(SCC(=O)NC(C)(C)C)nnc1-c1cccs1 | inactive: -18.2% |
| O=C(N/N=C/c1c[nH]c2ccccc12)c1ccc(Br)cc1 | inactive: -4.33% |
| CC1(C(=O)NS(=O)(=O)C2CC2)CCN(C(=O)c2ccccc2OC(F)(F)F)C1 (configuration not stated) | inactive: -17% |
| O=C(O)c1c2c(nc3ccccc13)/C(=C/c1ccc(OC(F)F)cc1)CCC2 | inactive: 12.9% |
| CC(Sc1ccc(Cl)cc1)C(=O)NNC(=O)c1ccco1 (configuration not stated) | inactive: 29.6% |
